Data published in PubChem BioAssay AID1645887 (National Center for Advancing Translational Sciences (NCATS), 2021).
Where “and” joins values, the source holds several entries; their conditions need not be identical. Equal entries are not always repeated. In all, about 16,000 compounds went through this assay and about 40 (0.2%) were called active. Inconclusive results (about 1%) are left out. The call rests on the fitted dose curve; in most records, active means well fitted activation curve with a large enough effect; inconclusive means small, poorly fitted or top-dose-only effect, or another doubt; inactive means no such curve, though single readings can be large or run the other way. Some of the results follow. Non-standard residues stand in square brackets, D forms with d. Residues, ends and D or L forms follow the SMILES beside them. Met(O) = CS(=O)CC[C@H](N)C(=O)O; Phe(ol) = N[C@H](CO)Cc1ccccc1; Sar = CNCC(=O)O

biological target: Rap guanine nucleotide exchange factor 4 (Homo sapiens) (UniProt Q8WZA2); experiment: Validation qHTS for agonist of cAMP-regulated guanine nucleotide exchange factor 4 (EPAC2); details: EPAC2 Rap1B BODIPY-GDP exchange, fluorescence; activation: stronger effect = higher value;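 further: exchange makes BODIPY-GDP fluorescence drop when released from Rap1B; series mostly up to about 150 µM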
Chain of UniProt Q8WZA2 (Q8WZA2 whole entry, looked up): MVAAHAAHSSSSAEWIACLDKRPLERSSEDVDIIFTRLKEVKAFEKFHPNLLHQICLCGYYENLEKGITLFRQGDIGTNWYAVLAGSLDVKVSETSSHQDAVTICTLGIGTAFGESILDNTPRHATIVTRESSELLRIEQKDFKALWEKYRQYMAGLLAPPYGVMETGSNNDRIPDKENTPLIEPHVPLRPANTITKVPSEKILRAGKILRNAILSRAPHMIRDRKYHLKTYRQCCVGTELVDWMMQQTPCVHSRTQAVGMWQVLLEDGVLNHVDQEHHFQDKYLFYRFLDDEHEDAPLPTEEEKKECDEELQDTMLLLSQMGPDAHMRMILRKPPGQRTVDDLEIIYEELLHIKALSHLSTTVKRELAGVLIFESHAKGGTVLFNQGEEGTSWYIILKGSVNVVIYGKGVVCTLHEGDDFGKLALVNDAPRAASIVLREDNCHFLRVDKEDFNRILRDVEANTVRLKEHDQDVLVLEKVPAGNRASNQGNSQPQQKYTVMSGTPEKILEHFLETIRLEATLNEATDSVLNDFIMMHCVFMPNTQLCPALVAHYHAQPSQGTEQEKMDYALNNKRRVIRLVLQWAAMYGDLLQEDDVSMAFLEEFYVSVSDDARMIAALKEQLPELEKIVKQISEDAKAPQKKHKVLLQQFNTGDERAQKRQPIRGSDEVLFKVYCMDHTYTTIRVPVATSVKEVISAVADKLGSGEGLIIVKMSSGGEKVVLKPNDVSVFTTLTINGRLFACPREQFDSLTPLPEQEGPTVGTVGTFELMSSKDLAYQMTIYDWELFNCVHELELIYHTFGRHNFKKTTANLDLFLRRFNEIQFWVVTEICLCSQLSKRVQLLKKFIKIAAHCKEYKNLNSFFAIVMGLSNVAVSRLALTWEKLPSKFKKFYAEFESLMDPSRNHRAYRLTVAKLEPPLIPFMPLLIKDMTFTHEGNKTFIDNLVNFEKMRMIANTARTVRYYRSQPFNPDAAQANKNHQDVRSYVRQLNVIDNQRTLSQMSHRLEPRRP
In short: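 Fluorescent exchange assay: 100 nM EPAC2 with 250 nM RAP1B-BODIPY-GDP and 50 uM GDP; compound added, 5 min at room temperature, then read (ex 480/em 540 nm) every 5 min for 30 min. Normalized to 6.5 mM cAMP agonist control.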
On the % scale 0 is the no-effect control and ±100 the full control effect.

SMILES	activation
CCOC(=O)c1cncn1C(C)c1ccccc1 (centres undefined)	inactive: -25.9%
Cc1noc(C)c1C(=O)N1CCC2(CCCN(CC(C)C)C2)CC1	inactive: -0.998%
N[C@@H](CCP(=O)(O)O)C(=O)O	inactive: -17.4%
CCOC(=O)/C=C(C)/C=C/C[C@@H](C)CCCC(C)C	inactive: -19.9%
C#CCN1CC(=O)N(COC(=O)C2C(C=C(C)C)C2(C)C)C1=O (centres undefined)	inactive: -43.6%
Cc1ncsc1CCCl	inactive: 2.05% and inactive: -4.55% and inactive: -37.2%
CC(=O)OC1CC[C@]2(C)C(CCC3C2CC[C@]2(C)C(C4=CC(=O)OC4)C(OC(C)=O)CC32O)C1 (some centres undefined)	inactive: -43.3%
CCCCCCC(C)(C)c1ccc([C@@H]2C[C@H](O)CC[C@H]2CCCO)c(O)c1	inactive: -71.9%
CC(C)CN1CCC2(CC1)CCN(S(C)(=O)=O)CC2	inactive: -2.25%
CCN1C[C@]2(C)CC[C@H](OC)[C@@]34[C@H]1C1(OCO[C@@]15C[C@H](OC)C1C[C@]3(O)C5[C@H]1OC)[C@@H](O)[C@H]24	inactive: -13.5%
C[C@@]12CCC(Cl)C[C@H]1CCC1C2CC[C@]2(C)C(=O)CCC12 (some centres undefined)	inactive: -2.76%
COC1(CS(=O)c2ccccc2)CCN(CCc2c[nH]c3ccc(F)cc23)CC1 (centres undefined)	inactive: -21.9%
O.O.O.O=C([O-])C(O)C(O)C(=O)[O-].O=C([O-])C(O)C(O)C(=O)[O-].[K+].[K+].[Sb].[Sb] (centres undefined)	inactive: 1.66%
C=CCN1CC[C@@]23c4c5ccc(O)c4O[C@H]2/C(=N\N=C2/CC[C@@]4(O)[C@H]6Cc7ccc(O)c8c7[C@@]4(CCN6CC=C)[C@@H]2O8)CC[C@]3(O)[C@@H]1C5	inactive: -15.7%
CC1Cc2ccccc2CN1 (centres undefined)	inactive: -10.7%
O=C(c1csnn1)N1CCC2(CC1)CN(Cc1ccncc1)C2	inactive: -8.62%
CCCCCCCCCCCCCCCCOC[C@@H](O)COP(=O)([O-])OCC[N+](C)(C)C	inactive: -2.53%
C[C@]1(C(=O)O)CCC[C@]2(C)c3cc(O)ccc3CC[C@@H]12	inactive: -3.77%
NC[C@H](CP(=O)(O)O)c1ccc(Cl)cc1	inactive: 0.516%
CCCCCCCCCOc1ccc2[nH]cc(CCN)c2c1	inactive: -47.4% and inactive: -10.5%

SMILES	activation
CC(=O)[C@H]1CCC2C3CC[C@H]4C[C@H](O)CC[C@]4(C)C3CC[C@@]21C (some centres undefined)	inactive: -54.9%
Clc1ccc(COC(Cn2ccnc2)c2ccc(Cl)cc2Cl)cc1 (centres undefined)	inactive: -16.6% and inactive: 20.8%
COc1ccc2c(c1OC)C(=O)OC2C1c2cc3c(cc2CCN1C)OCO3 (centres undefined)	inactive: 4.07% and inactive: 7.74% and inactive: 0.336%
CCN(CC)/[N+]([O-])=N/O	inactive: -5.38%
CCC(C)C(=O)O[C@@H]1C[C@@]2(C)C(c3ccoc3)OC(=O)CC23OC2(C)O[C@@]14[C@@]1(C)C(CC(=O)OC)C5(C)CC1(O)C(O)(C5OC(=O)C1(C)OC1C)C(OC(C)=O)[C@@]34O2 (some centres undefined)	inactive: -33.9%
c1ccc(C[C@@H](c2ccccc2)N2CCCCC2)cc1	inactive: 2.39%
Clc1ccc(C2(Cn3cncn3)OCCO2)c(Cl)c1	inactive: -6.32%
Cc1[nH]c2ccccc2c1CN(C)C	inactive: -2.62%
Cc1nc(-c2ccc(-c3ccc(C(=O)N4CCc5cc6c(cc54)C4(CCN(C)CC4)CO6)cc3)c(C)c2)no1	inactive: -29.4%
C[C@]12CCC3C(CC[C@H]4C[C@H](O)CC[C@]34C)[C@@H]1CC[C@@H]2C(=O)CO (some centres undefined)	inactive: -7.64%
CCOC(=O)C1(c2ccccc2)CCCN(C)CC1 (centres undefined)	inactive: -6.73%
CC(Cc1ccccc1)NC=O (centres undefined)	inactive: 1.9%
CN(CC(=O)N[C@H](CO)Cc1ccccc1)C(=O)[C@H](CCS(C)=O)NC(=O)[C@@H](N)Cc1ccc(O)cc1 (some centres undefined) (H-Y[Met(O)][Sar][Phe(ol)])	inactive: 5.51%
O=CC=O	inactive: 2.16%
NC1C[C@H]1c1ccccc1 (some centres undefined)	inactive: -2.77%
CCCCCCC(C)OC(=O)COc1ccc(Cl)cc1Cl (centres undefined)	inactive: 1.03%
c1ccc(N2CCC3(CCNCC3)CC2)nc1	inactive: 3.08%
CC(C)c1cccc(C(C)C)c1O	inactive: -14.6% and inactive: -35.8% and inactive: -13%
CN1C2CCC1CC(OC(c1ccc(F)cc1)c1ccc(F)cc1)C2 (centres undefined)	inactive: -4.58%
